Test results taken from PMC4336329 (PLoS ONE, 2015).
The campaign covered roughly 310,000 compounds. About 14,000 (4.5%) showed an effect of 50% or more. The effect is printed as a negative number. The list shows a part of the results.

biological target: human ether-à-go-go-related gene (hERG) potassium channel (human, UniProt Q12809); assay: primary screen, population patch clamp on CHO cells stably expressing hERG
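Note: peak tail current of the secondary pulse compared with the same well before compound.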

Chain of human ether-à-go-go-related gene (hERG) potassium channel (Q12809 whole entry, looked up): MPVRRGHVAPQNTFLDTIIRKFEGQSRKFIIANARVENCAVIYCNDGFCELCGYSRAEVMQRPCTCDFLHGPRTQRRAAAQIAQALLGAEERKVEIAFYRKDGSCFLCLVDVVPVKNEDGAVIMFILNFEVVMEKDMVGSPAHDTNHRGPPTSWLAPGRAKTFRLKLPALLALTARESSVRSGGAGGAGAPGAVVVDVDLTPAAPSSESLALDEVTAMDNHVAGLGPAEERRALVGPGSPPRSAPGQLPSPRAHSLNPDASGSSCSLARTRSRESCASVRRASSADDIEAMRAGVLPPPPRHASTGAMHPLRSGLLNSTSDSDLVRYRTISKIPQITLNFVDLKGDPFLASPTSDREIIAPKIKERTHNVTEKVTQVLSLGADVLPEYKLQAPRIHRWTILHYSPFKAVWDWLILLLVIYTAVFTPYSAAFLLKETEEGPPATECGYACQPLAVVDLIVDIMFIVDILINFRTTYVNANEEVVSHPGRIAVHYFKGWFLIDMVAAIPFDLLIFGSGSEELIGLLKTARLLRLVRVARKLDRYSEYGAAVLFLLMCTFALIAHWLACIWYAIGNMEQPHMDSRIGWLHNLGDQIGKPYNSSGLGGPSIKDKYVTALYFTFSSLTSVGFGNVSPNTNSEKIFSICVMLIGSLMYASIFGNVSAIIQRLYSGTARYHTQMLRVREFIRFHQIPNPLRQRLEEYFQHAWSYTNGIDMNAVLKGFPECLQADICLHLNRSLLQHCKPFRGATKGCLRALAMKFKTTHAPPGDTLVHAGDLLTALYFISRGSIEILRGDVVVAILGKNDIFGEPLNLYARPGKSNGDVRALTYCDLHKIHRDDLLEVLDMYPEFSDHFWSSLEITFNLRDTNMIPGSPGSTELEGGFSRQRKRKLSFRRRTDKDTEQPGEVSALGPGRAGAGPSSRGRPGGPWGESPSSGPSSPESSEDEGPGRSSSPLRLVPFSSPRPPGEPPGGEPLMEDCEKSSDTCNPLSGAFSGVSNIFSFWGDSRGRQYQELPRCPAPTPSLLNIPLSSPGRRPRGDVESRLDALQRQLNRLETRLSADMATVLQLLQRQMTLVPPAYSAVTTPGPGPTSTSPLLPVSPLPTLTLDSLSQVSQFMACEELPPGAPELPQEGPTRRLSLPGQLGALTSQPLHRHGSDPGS

SMILES	hERG current change (%, negative = inhibition) at 10uM [%]
CC(C)N1CCN(Cc2cccn2-c2ccccn2)CC1CCO (stereo not drawn)	-31.2
CCCSc1nc(SCC(=O)NCc2ccccc2)c2c3c(sc2n1)COC(C)(C)C3	7.66
O=C(COC(=O)CCC(=O)c1cccs1)Nc1cccc(F)c1	7.88
Nc1nncn1C(=O)c1ccccc1Cl	8.43
O=C(CCCCn1c(=O)c2ccccc2n(CC(=O)NC2CCCC2)c1=O)NC1CCCC1	-1.53
Cc1ccc(S(=O)(=O)N/N=C\c2cc3c(cc2[N+](=O)[O-])OCO3)cc1	15.4
COc1ccccc1Nc1nc(N)nc(CN2CCN(Cc3ccc4c(c3)OCO4)CC2)n1	-78.1
CCC(=O)c1ccc(OCc2ccc(C#N)cc2)cc1	7.33
Oc1ccccc1-c1cc(-c2ccco2)[nH]n1	2.39
CCNc1sc(C(=O)c2cccs2)c(N)c1-c1nc2ccccc2s1	10.6
C/C(CC(=O)Nc1ccc2c(c1)OCCO2)=N\NC(=O)COc1ccc(C)cc1	-12.7
CN(C)c1ccc(P(=O)(CC(=O)N/N=C/c2ccc(C#N)cc2)OCCCl)cc1 (stereo not drawn)	-23.9
COc1ccccc1-n1nnnc1SCC(=O)Nc1oc(C)c2c(C)n[nH]c(=O)c12	0.431
CC(C)Sc1cc(N2CCCC2)nc(-c2ccccc2)n1	-5.24
Cc1ccc(Sc2nc(-c3ccccc3)ccc2C#N)cc1	7.27
Cc1ccc(C)c(S(=O)(=O)C(C#N)c2nc3ccccc3nc2N2CC(C)OC(C)C2)c1 (stereo not drawn)	4.01
O=C(COc1ccc(C2SCCS2)cc1)NNC(=O)C(Cl)Cl	9.56
CSc1ncc(-c2ccc(Cl)cc2)[nH]1	-1.02
O=C(Nc1cccc(C(F)(F)F)c1)c1ccccc1NC(=O)C1CCCCC1	12.3
CN(C)/C=C(\C(=O)c1cccc(Cl)c1)c1nnnn1-c1ccccc1	1.84
Cc1ccc(S(=O)(=O)NCc2cn3ccccc3n2)c(C)c1	14.7
CC(=O)c1c(C)[nH]c(C(=O)OCC(=O)NCc2ccc(Cl)cc2)c1C	0.997

SMILES	hERG current change (%, negative = inhibition) at 10uM [%]
COc1ccccc1NC(=O)c1sc2nc(Cc3ccccc3)cc(C(F)(F)F)c2c1N	-7.85
COc1ccc(C(=O)NC(=S)NCc2ccc(-c3nc4ccccc4o3)cc2)cc1OC	12.2
COc1ccccc1C(=O)C1CCCN(C(=O)c2cc(C(C)C)no2)C1 (stereo not drawn)	-5.26
Cn1nc(C(=O)Nc2cccc(C(=O)NC3CC3)c2)c2ccccc2c1=O	-35.3
O=C(NCCS(=O)(=O)N1CCN(c2ccc(F)cc2)CC1)c1ccco1	-62.2
Cc1nnc(SCC(=O)N/N=C/c2cc(Cl)c(O)c(Cl)c2)s1	10.2
Cc1csc(NC(=O)c2cccc([N+](=O)[O-])c2C(=O)O)n1	8.84
O=C(NN=C(Cc1ccccc1)Cc1ccccc1)c1ccccc1F	15.1
CC(C(=O)N1CCc2ccccc21)N(C)CC(=O)Nc1cccc(F)c1 (stereo not drawn)	-24.7
COc1ccc(C(=O)NCC23C=CC(O2)C2C(=O)N(Cc4ccccc4)C(=O)C23)cc1 (stereo not drawn)	-17.1
O=C(Nc1ccc(S(=O)(=O)N2CCCC2)cc1)C1CCCCC1	10.4
Cc1ccc(S(=O)(=O)Nc2ccccc2C(=O)NCC2CCCO2)cc1 (stereo not drawn)	-15.3
CCOC(=O)c1oc2ccc(CNC(C)(C)C)c(Cl)c2c1C.O=C(O)C(=O)O	-5.61
O=C(Cc1c(F)cccc1Cl)Nc1ccncc1	-16.2
CCc1ccc(S(=O)(=O)N2CCN(c3ncccn3)CC2)cc1	21.1
Cc1cc(OCC(=O)Nc2cccc(S(=O)(=O)N3CCCCC3)c2)ccc1Cl	-3.31
Cc1ccc(SCC(=O)OCC(=O)N(C)CC(=O)Nc2ccc(F)cc2)cc1C	-38.7
COC(=O)Cn1c(=O)c2c(nc(Br)n2Cc2ccccc2Cl)n(C)c1=O	-20.8
CN(C)CCn1c(=O)n(C2CCCCC2)c(=O)c2c3c(sc21)CCCCC3	-25.3
CN1C(=S)SC2CS(=O)(=O)CC21C (stereo not drawn)	0.679
Cc1ccc(C(=O)Nc2ccc(S(=O)(=O)N3CCc4ccccc4C3)cc2)o1	1.81
Cc1cc2oc(=O)cc(Cn3ccnc3)c2cc1Cl	15

SMILES	hERG current change (%, negative = inhibition) at 10uM [%]
CCCOc1ccc2oc(=O)c3c(c2c1)CCCN3C(=O)CN1CCN(c2ncccn2)CC1	-70.1
Cc1ccc2nc(-c3ccncc3)cc(C(=O)Nc3ccc4c(c3)OCCO4)c2c1	3.46
O=C1[C@H]2[C@@H](c3ccc(F)cc3)N3C(=O)N(c4ccc(C(F)(F)F)cc4)C(=O)[C@@]3(Cc3ccccc3)[C@H]2C(=O)N1C1CCCCC1	10.9
COc1ccc(-c2cc(C(=O)N3CCCCCC3)no2)cc1OC	7.06
CCC(=O)c1ccc(OC)c(OC)c1O	7.65
Cc1ccc(C(=O)c2cc([N+](=O)[O-])ccc2N2CCOCC2)cc1C	-17
C=CCN1C(=O)C(CC(=O)O)SC1=Nc1ccc(C)cc1 (stereo not drawn)	10.3
COc1cc(OC)cc(-c2cc3nc(C4CCN(C(=O)OC(C)(C)C)CC4)cc(=O)n3[nH]2)c1	0.583
O=C(CSc1nnc(-c2ccccc2)c2ccccc12)NCCN1C(=O)CSC1=O	-27.6
O=C(OCC(=O)N1CCN(C(=O)c2ccco2)CC1)c1cc(-c2cccc(Br)c2)nc2ccccc12	-19.6
CN(CC(=O)Nc1ccc(Cl)c(Cl)c1)C(=O)/C=C/c1ccc(F)cc1	1.66
CCc1cc(C(=O)OC)c(NC(=O)CN2CCN(C(=O)c3ccco3)CC2)s1	-51.6
CC(C)NC(=O)C1CCCN(S(=O)(=O)c2ccc(-n3cnnn3)cc2)C1 (stereo not drawn)	-15.3
CCCCn1c(O)c(C(=O)/C=C/c2c[nH]c3ccccc23)c(=O)[nH]c1=O	2.9
O=C(CN1C(=O)c2ccccc2C1=O)NCCc1c[nH]c2ccccc12	-15.5
CCOc1ccccc1C(=O)NCC(=O)O	22.6
COc1ccc([N+](=O)[O-])cc1NC(=O)Nc1ccc(OC)c(OC)c1	8.37
COc1ccc(O)c(C(=O)c2cc(C#N)c(=O)n(Cc3ccccc3)c2)c1	-20
C#CC1(NC(=O)NC(C)C)CCCCC1	11.4
CC(=O)c1nn(-c2cccc(C(F)(F)F)c2)c(=O)[nH]c1=O	13
Cc1nn(-c2ccccc2)c2nc(N)c(C(N)=O)cc12	6.55
O=C1c2ccccc2CCC12N=NCC2c1ccccc1 (stereo not drawn)	-25.4

SMILES	hERG current change (%, negative = inhibition) at 10uM [%]
O=C(c1ccc([N+](=O)[O-])o1)N(Cc1nnc(-c2ccccc2Cl)o1)C1CC1	-20.9
O=C(/C=C1\SC(=O)NC1=O)Nc1ccc(C(=O)O)cc1	24.4
O=C(COc1ccc(Br)cc1)Nc1ccccc1C(=O)NC1CC1	-6.57
O=C(Nc1c[nH]c2c(Cl)cccc2c1=O)N1CCN(c2ccccn2)CC1	-1.82
Cc1c(C(=O)N2CCN(Cc3ccc4c(c3)OCO4)CC2)cccc1[N+](=O)[O-]	-20.1
Fc1cccc(Nc2nc(N3CCOCC3)nc(N3CCOCC3)n2)c1	-16.3
CS(=O)(=O)Nc1ccc(C(=O)NCc2ccccn2)cc1	0.863
Cc1cccc(C(=O)NCCCNC(=O)c2ccc(C)nc2)c1	6.82
C/C(CCC(=O)O)=N/Nc1ccc([N+](=O)[O-])cc1[N+](=O)[O-]	-20.6
Cc1cc(C)c(C)c(S(=O)(=O)NCCCN2CCOCC2)c1C	13.6
CC(C)(C)S(=O)(=O)c1c(C(=O)O)cccc1C(=O)O	4.59
CC(C)Oc1nc(-c2ccccc2O)nc2ccccc12	5.18
Cc1nc2ccc(NC(=O)N(C)c3ccccc3)cc2s1	-11.3
O=C(CN(C(=O)CCC(=O)Nc1ccccn1)c1ccccc1F)NCc1ccc2c(c1)OCO2	10
COc1ccc(C(=O)NCCS(=O)(=O)NCc2cccs2)cc1	-29.5
CCCc1ccc(S(=O)(=O)N(C)S(=O)(=O)c2ccc(F)cc2)cc1	8.38
CC(C)(C)OC(=O)N1CCC(NC(=O)c2[nH]cnc2C(=O)Nc2ccon2)CC1	-33.2
c1cncc(CSc2ccc(-c3ccc4c(c3)OCO4)nn2)c1	-8.44
CCOc1ccc2[nH]c(=O)c(C(c3nnnn3Cc3ccco3)N3CCCC(C)C3)cc2c1 (stereo not drawn)	-4.69
COc1ccc(C2C([N+](=O)[O-])=C(N)Oc3c2c(=O)oc2ccccc32)cc1 (stereo not drawn)	5.61
CN1CCN(c2ccc(S(=O)(=O)N3CCCCC3)cc2NC(=O)CCc2ccccc2)CC1	-53.3
